# Test results taken from PubChem BioAssay AID1347043 (National Center for Advancing Translational Sciences (NCATS), 2019).
# Out of some 76,000 compounds screened, about 1,900 (2.5%) were called active. Inconclusive means that the source gave no clear call. Such entries were picked first, then a sample of the others. The call rests on the fitted dose curve; in most records, active means well fitted inhibition curve with a large enough effect; inconclusive means small, poorly fitted or top-dose-only effect; inactive means flat fitted curve, though single readings scatter. Where the call is inconclusive, the potency comes from a doubtful curve fit.
# Molecular target: Luciferin 4-monooxygenase (Photinus pyralis) (UniProt P08659)
# Assay: Firefly luciferase inhibition profiling of diverse chemical library using quantitative high-throughput screening; further: nearly all actives have a fitted effect of over 65% in size
# Conditions: purified P. pyralis luciferase, luminescence, biochemical; activity change, negative = inhibition: at 115 µM (top of the series) unless noted
# Procedure, shortened: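 Purified 10nM P. pyralis luciferase with 10uM D-luciferin and 10uM ATP in 50mM Tris acetate pH 7.5, 10mM Mg acetate, 0.01% Tween-20, 0.05% BSA. qHTS titration; luminescence read by CCD imager.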
# On the % scale 0 is the no-effect control and ±100 the full control effect; potency means the concentration at half of the fitted maximal effect; tags describe the fitted curve by direction and shape.
# Chain of UniProt P08659 (P08659 whole entry, looked up): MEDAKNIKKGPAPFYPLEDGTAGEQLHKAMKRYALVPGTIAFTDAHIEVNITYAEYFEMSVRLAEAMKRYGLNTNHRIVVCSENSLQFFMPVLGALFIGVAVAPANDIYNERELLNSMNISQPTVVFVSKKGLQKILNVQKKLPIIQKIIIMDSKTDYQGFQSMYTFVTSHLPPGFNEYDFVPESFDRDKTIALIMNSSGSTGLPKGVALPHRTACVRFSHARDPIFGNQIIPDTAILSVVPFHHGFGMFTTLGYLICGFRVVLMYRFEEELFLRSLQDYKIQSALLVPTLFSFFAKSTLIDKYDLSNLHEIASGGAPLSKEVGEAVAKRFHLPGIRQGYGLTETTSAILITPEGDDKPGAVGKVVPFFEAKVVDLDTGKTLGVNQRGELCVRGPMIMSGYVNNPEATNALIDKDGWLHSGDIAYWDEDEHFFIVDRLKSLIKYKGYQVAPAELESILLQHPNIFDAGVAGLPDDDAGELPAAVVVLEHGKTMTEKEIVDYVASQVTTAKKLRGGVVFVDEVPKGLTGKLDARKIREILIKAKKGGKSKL
Compound,Potency,"activity change, negative = inhibition"
Cc1c(-c2ccccc2)[nH]c2c(CNC(=O)Cn3ccc(=O)[nH]c3=O)cc(Cl)cc12,"inconclusive: 14.1 µM [inhibitor, full curve]",–
COc1ccc(NC(=O)N2CCc3nc4cc(-c5ccccc5)[nH]n4c(=O)c3C2)c(C)c1,"inconclusive: 44.7 µM [inhibitor, partial curve]",–
COc1cccc(C(=O)Nc2ccc3c(N4CCOCC4)ncnc3c2)c1,"inconclusive: 39.8 µM [inhibitor, partial curve]",–
Cc1cc(F)ccc1NC(=O)CCC1CCCN(C(=O)c2ccc(Cl)s2)C1 (configuration not stated),"inconclusive: 50.1 µM [inhibitor, partial curve]",–
O=C(NCC1CC1)c1nc2c(o1)CCN(CCCc1ccccc1)CC2,"inconclusive: 126 µM [inhibitor, single point]",–
COc1ccccc1N1CCN(C(=O)Cn2c(C)cc3nc4n(c(=O)c32)CCCCC4)CC1,–,inactive: 3.85%
Cc1cccc(-c2noc([C@@H]3Cc4nc[nH]c4CN3C(=O)Nc3ccccc3)n2)c1,active: 50.1 µM,–
O=C(c1cc(-c2cccs2)[nH]n1)N1CCc2c(nc(-c3ccccc3)[nH]c2=O)C1,"inconclusive: 25.1 µM [inhibitor, partial curve]",–
CCc1ccc(C(=O)N2CCN(C3CCN(CCc4ccccc4)C3=O)CC2)cc1 (configuration not stated),"inconclusive: 44.7 µM [inhibitor, partial curve]",–
Fc1ccc(-c2noc(-c3ncn4c3COC(c3ccccc3Cl)C4)n2)cc1 (configuration not stated),"inconclusive: 35.5 µM [inhibitor, partial curve]",–
O=c1cc(-c2cccnc2)oc2c(NCCc3ccccn3)nccc12,"inconclusive: 89.1 µM [inhibitor, partial curve]",–
COc1ccc(-c2nn(-c3ccccc3)cc2CN2CCOC(C)(C)C2)c(F)c1,"inconclusive: 20 µM [inhibitor, partial curve, poor fit]",–
CN(C)c1ccc(NC(=O)Cn2cccc2-c2nc(-c3ccccc3)no2)cc1,–,inactive: -2.47%
COC(C)(C)C(=O)N1CCc2onc(-c3ccc4c(c3)OCO4)c2C1,–,inactive: 0.636%
COc1ccc(-c2cnc3[nH]cc(CC(=O)NC4CCOCC4)c3c2)cc1,"inconclusive: 70.8 µM [inhibitor, partial curve]",–
CCCOc1ccc(CNC(=O)CCn2ccn3nc4c(c3c2=O)CCCC4)cc1,–,inactive: -1.55%
O=C(NCc1ccccn1)C1CN(S(=O)(=O)c2cccs2)CC12CCCCC2 (configuration not stated),–,inactive: -9.22%
CCCCCC(=O)N1CCC(O)(c2csc(CN3CCN(c4ccccn4)CC3)n2)CC1,–,inactive: 2.41%
CCC(C)NC(=O)c1ccc(-c2ccc(N3CCSCC3)nc2)cc1 (configuration not stated),"inconclusive: 50.1 µM [inhibitor, partial curve]",–
CC1CCC(NC(=O)c2cc(-c3ccc[nH]3)n[nH]2)CC1 (configuration not stated),"inconclusive: 44.7 µM [inhibitor, partial curve]",–
CCC1CCCCN1CCNC(=O)c1cc2c(s1)CN(C1CCCC1)C2 (configuration not stated),"inconclusive: 50.1 µM [inhibitor, partial curve, poor fit]",–

Compound,Potency,"activity change, negative = inhibition"
COc1ccc2nc([C@H]3CCN(C4CCN(C(C)=O)CC4)C3)[nH]c2c1,"inconclusive: 89.1 µM [inhibitor, partial curve, poor fit]",–
COc1ccc(-c2cc(N3CCCC(NC(=O)c4nccc5ccccc45)C3)n[nH]2)cc1 (configuration not stated),"inconclusive: 25.1 µM [inhibitor, full curve]",–
Cc1ccc(NC(=O)[C@H]2CCC[C@H]2NC(=O)c2cnc(C)cn2)cc1,"inconclusive: 31.6 µM [inhibitor, partial curve]",–
CN1CC(=O)N(c2ccc(Cl)cc2)Cc2c(NCCCc3ccccc3)ncnc21,active: 39.8 µM,–
Cc1ccc(-c2cc3c(=O)n(CCNC(=O)Cc4ccsc4)ccn3n2)c(C)c1,active: 8.91 µM,–
Cn1ccc2c(C(=O)NCCc3cnc[nH]3)nc(-c3ccc(N4CCOCC4)cc3)cc21,active: 1 µM,–
CC1=NS(=O)(=O)N(C)C=C1C(=O)O,–,inactive: -6.08%
O=C(C1CC=CC1)N1CCN(C(=O)N2CC3CC(C2)[C@H]2CCCC(=O)N2C3)CC1 (some centres not stated),–,inactive: 0.867%
O=C(NC1CCCN(c2cc(-c3ccccc3)[nH]n2)C1)c1cccc(F)c1 (configuration not stated),"inconclusive: 39.8 µM [inhibitor, partial curve, poor fit]",–
O=C(NCc1ccc(F)cc1)C1CCN(C(=O)c2ncn3c2COC(c2ccc(Cl)cc2)C3)CC1 (configuration not stated),"inconclusive: 44.7 µM [inhibitor, partial curve]",–
COc1ccc(-c2cnc3[nH]cc(CC(=O)N4CCOCC4)c3c2)cn1,"inconclusive: 35.5 µM [inhibitor, partial curve]",–
CN1c2cc(C(=O)Nc3cccc(Br)c3)ccc2C(=O)N2CCCCC21 (configuration not stated),"inconclusive: 35.5 µM [inhibitor, full curve]",–
O=C(NC1CCN(c2cc(-c3ccc(Cl)cc3)[nH]n2)C1)c1ccc2[nH]ccc2c1 (configuration not stated),"inconclusive: 20 µM [inhibitor, full curve]",–
COc1ccc(-c2cnc(Nc3cccnc3)c3c2CCO3)cn1,"inconclusive: 63.1 µM [inhibitor, full curve]",–
COc1ccccc1C(=O)N1CCCC(n2cc(-c3nc(-c4ccccc4)no3)nn2)C1 (configuration not stated),"inconclusive: 44.7 µM [inhibitor, partial curve]",–
CC(=O)NC1(C)CCN(Cc2cnc(-c3cccc(F)c3)s2)CC1,"inconclusive: 44.7 µM [inhibitor, partial curve]",–
COc1cc(N2CCC(CO)(Cc3ccccc3C(F)(F)F)CC2)ncn1,–,inactive: 13.6%
COC(=O)C1=C(C)N=C2SC=C(CC(=O)NCC3CC3)N2C1c1cccc([N+](=O)[O-])c1 (configuration not stated),–,inactive: 2.49%
O=C(N[C@@H]1C[C@H](Cn2cc(C3CC3)nn2)[C@@H](O)[C@H]1O)c1ccc2c(c1)OCO2,"inconclusive: 100 µM [inhibitor, partial curve, poor fit]",–
Cc1ccc(NC(=O)CC2CCCN(c3cnn(C)c(=O)c3)C2)cc1F (configuration not stated),"inconclusive: 50.1 µM [inhibitor, partial curve, poor fit]",–
Cc1cc(CN(C)c2ccc(-c3nc(-c4ccccc4F)no3)cn2)on1,"inconclusive: 1.58 µM [inhibitor, partial curve, poor fit]",–
